Numbering of substitutions follows the chain as printed; changes in the protein carry UniProt numbers. This is one part of the list.

First the molecules themselves.
T1: RBFOX1 RRM RbFoxmut (Fox-RRM*) (Homo sapiens, UniProt Q9NWB1 109-208, R118D;E147R;N151S;E152T)
T1 sequence: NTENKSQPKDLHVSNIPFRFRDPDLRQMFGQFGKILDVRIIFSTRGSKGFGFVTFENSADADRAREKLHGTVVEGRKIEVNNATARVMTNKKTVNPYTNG

B1: CUAUCGC (DNA:RNA)
RNA: GGGAGACCGGAAUUCAGAUUGUCCCUAUCGCUUAAAUCCCGUCGUAGCCACCA
DNA 1: CAATCTGAATTCCGGTCTCCC
DNA 2: TGGTGGCTACGACGGGATT
B2: GAGCAGU (DNA:RNA)
RNA: B1 RNA with C25G, U26A, A27G, U28C, C29A, C31U
DNA 1: CAATCTGAATTCCGGTCTCCC
DNA 2: TGGTGGCTACGACGGGATT
B3: UGGCAGG (DNA:RNA)
RNA: B1 RNA with C25U, U26G, A27G, U28C, C29A, C31G
DNA 1: CAATCTGAATTCCGGTCTCCC
DNA 2: TGGTGGCTACGACGGGATT
B4: CUCCCAG (DNA:RNA)
RNA: B1 RNA with A27C, U28C, G30A, C31G
DNA 1: CAATCTGAATTCCGGTCTCCC
DNA 2: TGGTGGCTACGACGGGATT
B5: UAGAUCG (DNA:RNA)
RNA: GGGAGACCGGAAUUCAGAUUGUCCUAGAUCGUUAAAUCCCGUCGUAGCCACCA
DNA 1: CAATCTGAATTCCGGTCTCCC
DNA 2: TGGTGGCTACGACGGGATT
B6: AUGAUAG (DNA:RNA)
RNA: B5 RNA with U25A, A26U, C30A
DNA 1: CAATCTGAATTCCGGTCTCCC
DNA 2: TGGTGGCTACGACGGGATT
B7: GUGUAGG (DNA:RNA)
RNA: B1 RNA with C25G, A27G, C29A, C31G
DNA 1: CAATCTGAATTCCGGTCTCCC
DNA 2: TGGTGGCTACGACGGGATT
B8: UGGUAUG (DNA:RNA)
RNA: B5 RNA with A26G, A28U, U29A, C30U
DNA 1: CAATCTGAATTCCGGTCTCCC
DNA 2: TGGTGGCTACGACGGGATT
B9: UUCCUCG (DNA:RNA)
RNA: B5 RNA with A26U, G27C, A28C
DNA 1: CAATCTGAATTCCGGTCTCCC
DNA 2: TGGTGGCTACGACGGGATT
B10: ACGCUGA (DNA:RNA)
RNA: B5 RNA with U25A, A26C, A28C, C30G, G31A
DNA 1: CAATCTGAATTCCGGTCTCCC
DNA 2: TGGTGGCTACGACGGGATT
B11: ACUCUUG (DNA:RNA)
RNA: B5 RNA with U25A, A26C, G27U, A28C, C30U
DNA 1: CAATCTGAATTCCGGTCTCCC
DNA 2: TGGTGGCTACGACGGGATT
B12: AUCCUCU (DNA:RNA)
RNA: B5 RNA with U25A, A26U, G27C, A28C, G31U
DNA 1: CAATCTGAATTCCGGTCTCCC
DNA 2: TGGTGGCTACGACGGGATT
B13: AAUUGCU (DNA:RNA)
RNA: B5 RNA with U25A, G27U, A28U, U29G, G31U
DNA 1: CAATCTGAATTCCGGTCTCCC
DNA 2: TGGTGGCTACGACGGGATT
B14: CGAGGAG (DNA:RNA)
RNA: B1 RNA with U26G, U28G, C29G, G30A, C31G
DNA 1: CAATCTGAATTCCGGTCTCCC
DNA 2: TGGTGGCTACGACGGGATT
B15: UUACCAC (DNA:RNA)
RNA: B1 RNA with C25U, U28C, G30A
DNA 1: CAATCTGAATTCCGGTCTCCC
DNA 2: TGGTGGCTACGACGGGATT
B16: AUUUGUU (DNA:RNA)
RNA: B1 RNA with C25A, A27U, C29G, G30U, C31U
DNA 1: CAATCTGAATTCCGGTCTCCC
DNA 2: TGGTGGCTACGACGGGATT
B17: UUUACCA (DNA:RNA)
RNA: B5 RNA with A26U, G27U, U29C, G31A
DNA 1: CAATCTGAATTCCGGTCTCCC
DNA 2: TGGTGGCTACGACGGGATT
B18: GAGACUC (DNA:RNA)
RNA: B5 RNA with U25G, U29C, C30U, G31C
DNA 1: CAATCTGAATTCCGGTCTCCC
DNA 2: TGGTGGCTACGACGGGATT
B19: CGUUCUA (DNA:RNA)
RNA: B1 RNA with U26G, A27U, G30U, C31A
DNA 1: CAATCTGAATTCCGGTCTCCC
DNA 2: TGGTGGCTACGACGGGATT
B20: GAGCCAG (DNA:RNA)
RNA: B5 RNA with U25G, A28C, U29C, C30A
DNA 1: CAATCTGAATTCCGGTCTCCC
DNA 2: TGGTGGCTACGACGGGATT
B21: CAGAUCA (DNA:RNA)
RNA: B5 RNA with U25C, G31A
DNA 1: CAATCTGAATTCCGGTCTCCC
DNA 2: TGGTGGCTACGACGGGATT
B22: AGAAUAA (DNA:RNA)
RNA: B5 RNA with U25A, A26G, G27A, C30A, G31A
DNA 1: CAATCTGAATTCCGGTCTCCC
DNA 2: TGGTGGCTACGACGGGATT
B23: GCCGAAU (DNA:RNA)
RNA: GGGAGACCGGAAUUCAGAUUGUCCGCCGAAUUUAAAUCCCGUCGUAGCCACCA
DNA 1: CAATCTGAATTCCGGTCTCCC
DNA 2: TGGTGGCTACGACGGGATT
B24: AGCUUAC (DNA:RNA)
RNA: B1 RNA with C25A, U26G, A27C, C29U, G30A
DNA 1: CAATCTGAATTCCGGTCTCCC
DNA 2: TGGTGGCTACGACGGGATT
B25: ACGUCCU (DNA:RNA)
RNA: B1 RNA with C25A, U26C, A27G, G30C, C31U
DNA 1: CAATCTGAATTCCGGTCTCCC
DNA 2: TGGTGGCTACGACGGGATT
B26: GGUAAAG (DNA:RNA)
RNA: B23 RNA with C26G, C27U, G28A, U31G
DNA 1: CAATCTGAATTCCGGTCTCCC
DNA 2: TGGTGGCTACGACGGGATT
B27: UCGAGAC (DNA:RNA)
RNA: B5 RNA with A26C, U29G, C30A, G31C
DNA 1: CAATCTGAATTCCGGTCTCCC
DNA 2: TGGTGGCTACGACGGGATT
B28: CCGACCU (DNA:RNA)
RNA: B5 RNA with U25C, A26C, U29C, G31U
DNA 1: CAATCTGAATTCCGGTCTCCC
DNA 2: TGGTGGCTACGACGGGATT
B29: UGAACAG (DNA:RNA)
RNA: B5 RNA with A26G, G27A, U29C, C30A
DNA 1: CAATCTGAATTCCGGTCTCCC
DNA 2: TGGTGGCTACGACGGGATT
B30: UGGGCAC (DNA:RNA)
RNA: B1 RNA with C25U, U26G, A27G, U28G, G30A
DNA 1: CAATCTGAATTCCGGTCTCCC
DNA 2: TGGTGGCTACGACGGGATT
B31: AGAAUAC (DNA:RNA)
RNA: B1 RNA with C25A, U26G, U28A, C29U, G30A
DNA 1: CAATCTGAATTCCGGTCTCCC
DNA 2: TGGTGGCTACGACGGGATT

In the experiment the target is T1, RBFOX1 RRM RbFoxmut (Fox-RRM*). Description: EMSA; HiTS-Eq, 1 nM pool, 10 min; buffer printed only for the single-RNA assays: 10 mM Tris pH 7.5, 150 mM NaCl, 3.4 mM EDTA, 0.001% NP-40, 30 C. As to conditions: tags: His6 N-terminal (pET28a); label: 5' 32P. In outline: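 Purified RbFox RRM (wild type or mutant) was equilibrated for 10 min in 50 µL with 1 nM of a 5′-radiolabelled pool of RNA with 7 randomized nucleotides, its flanks annealed to DNA oligonucleotides, across increasing protein concentrations. Free RNA was separated by 8% native PAGE, excised, reverse-transcribed, PCR-barcoded and sequenced on an Illumina HiSeq 2500. Relative association constants came from read-count changes of each variant against the control reaction, normalised to the cognate motif.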
(In general: In EMSA bound probe runs differently from free probe, usually more slowly.)
Turning to B1, the binding signal is 0.0843 KA relative to UGCAUGU.

For B2, the binding signal is 0.0808 KA relative to UGCAUGU.

As for B3, the binding signal is 0.109 KA relative to UGCAUGU.

Consider B4, for which the binding signal was 0.111 KA relative to UGCAUGU.

On to B5, for which the binding signal was 0.0938 KA relative to UGCAUGU.

B6: the binding signal is 0.154 KA relative to UGCAUGU.

For the molecule B7, the binding signal was 0.111 KA relative to UGCAUGU.

As to B8, the binding signal was 1.27 KA relative to UGCAUGU.

Regarding B9, the binding signal is 0.0898 KA relative to UGCAUGU.

In the case of B10, the binding signal was 0.102 KA relative to UGCAUGU.

For B11, the binding signal is 0.1 KA relative to UGCAUGU.

In the case of B12, the binding signal was 0.0595 KA relative to UGCAUGU.

B13: the binding signal was 0.0992 KA relative to UGCAUGU.

As to B14, the binding signal was 0.125 KA relative to UGCAUGU.

With B15, the binding signal was 0.0914 KA relative to UGCAUGU.

B16: the binding signal is 0.111 KA relative to UGCAUGU.

Turning to B17, the binding signal is 0.102 KA relative to UGCAUGU.

As for B18, the binding signal is 0.0694 KA relative to UGCAUGU.

For B19, the binding signal was 0.0977 KA relative to UGCAUGU.

With B20, the binding signal is 0.0861 KA relative to UGCAUGU.

With B21, the binding signal is 0.0698 KA relative to UGCAUGU.

Take B22: the binding signal was 0.0784 KA relative to UGCAUGU.

B23: the binding signal is 0.0985 KA relative to UGCAUGU.

Turning to B24, the binding signal is 0.101 KA relative to UGCAUGU.

On to B25, for which the binding signal was 0.0891 KA relative to UGCAUGU.

B26: the binding signal is 0.0591 KA relative to UGCAUGU.

Take B27: the binding signal was 0.0707 KA relative to UGCAUGU.

Take B28: the binding signal is 0.0827 KA relative to UGCAUGU.

Turning to B29, the binding signal is 0.0611 KA relative to UGCAUGU.

As for B30, the binding signal is 0.0864 KA relative to UGCAUGU.

On to B31, for which the binding signal is 0.0943 KA relative to UGCAUGU.

Source of the values: article PMC9911399, “Two distinct binding modes provide the RNA-binding protein RbFox with extraordinary sequence specificity”.
